Experimental data taken from article PMC4336329 (PLoS ONE, 2015).
Out of some 310,000 compounds screened, about 14,000 (4.5%) showed an effect of 50% or more. The effect is printed as a negative number. This is one part of the list.

target: human ether-à-go-go-related gene (hERG) potassium channel (human, UniProt Q12809); test: primary screen, population patch clamp on CHO cells stably expressing hERG
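Also: peak tail current of the secondary pulse compared with the same well before compound.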

Sequence of human ether-à-go-go-related gene (hERG) potassium channel (Q12809 whole entry, looked up): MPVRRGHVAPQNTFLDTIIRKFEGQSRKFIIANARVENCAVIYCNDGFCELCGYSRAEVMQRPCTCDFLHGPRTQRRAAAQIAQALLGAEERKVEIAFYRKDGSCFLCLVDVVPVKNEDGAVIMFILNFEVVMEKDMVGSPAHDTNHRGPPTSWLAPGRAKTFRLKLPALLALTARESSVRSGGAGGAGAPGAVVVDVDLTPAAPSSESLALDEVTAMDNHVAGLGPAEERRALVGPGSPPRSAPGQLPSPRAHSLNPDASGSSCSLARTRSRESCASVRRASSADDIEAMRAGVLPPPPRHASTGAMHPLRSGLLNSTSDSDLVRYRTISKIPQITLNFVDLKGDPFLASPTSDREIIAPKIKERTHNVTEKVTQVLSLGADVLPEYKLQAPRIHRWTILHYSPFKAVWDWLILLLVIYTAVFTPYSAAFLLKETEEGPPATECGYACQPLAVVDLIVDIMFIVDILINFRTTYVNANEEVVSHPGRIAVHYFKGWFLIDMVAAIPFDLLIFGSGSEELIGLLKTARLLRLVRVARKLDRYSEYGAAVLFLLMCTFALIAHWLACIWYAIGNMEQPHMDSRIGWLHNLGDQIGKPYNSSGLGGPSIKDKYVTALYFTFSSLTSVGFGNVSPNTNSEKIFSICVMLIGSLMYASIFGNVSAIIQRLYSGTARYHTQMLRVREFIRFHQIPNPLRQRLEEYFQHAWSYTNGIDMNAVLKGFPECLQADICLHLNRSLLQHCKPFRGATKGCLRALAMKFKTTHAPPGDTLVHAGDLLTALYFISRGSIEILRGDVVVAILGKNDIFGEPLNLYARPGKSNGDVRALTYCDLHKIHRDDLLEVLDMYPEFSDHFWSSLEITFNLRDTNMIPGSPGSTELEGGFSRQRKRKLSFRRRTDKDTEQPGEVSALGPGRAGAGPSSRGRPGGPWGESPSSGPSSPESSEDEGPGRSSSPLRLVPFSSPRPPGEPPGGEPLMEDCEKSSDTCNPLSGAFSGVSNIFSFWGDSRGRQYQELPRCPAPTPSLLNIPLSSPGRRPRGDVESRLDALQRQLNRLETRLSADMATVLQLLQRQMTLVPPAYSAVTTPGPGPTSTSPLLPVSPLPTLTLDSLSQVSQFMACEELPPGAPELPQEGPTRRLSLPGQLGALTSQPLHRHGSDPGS

Row | SMILES | hERG current change (%, negative = inhibition) at 10uM
1 | COc1ccc(-c2csc(NC(=O)c3ccccc3NS(=O)(=O)c3ccc(C)cc3)n2)cc1 | -6.26%
2 | CCN(CC)c1ccc(NC(=O)COc2ccc(C#N)cc2)cc1S(=O)(=O)Nc1ccc(OC)cc1 | 9.73%
3 | COc1ccc(-c2nnc(SCc3cccc(C#N)c3)o2)cc1 | -0.873%
4 | COc1cccc(CN2CCN(C3CSCCSC3)CC2CCO)c1 (centres unmarked) | -13%
5 | CC(C)(C)NC(=O)NCc1cccnc1 | 16.6%
6 | CCN(CC)C(=O)CSc1nnc2nnc3cc(OC)ccc3n12 | 2.88%
7 | COc1cc(/C=N/NC(=O)Cc2csc(N3CCOCC3)n2)cc(OC)c1O | 30.1%
8 | Cc1ccc(CNS(=O)(=O)c2cccc3nsnc23)cc1 | -24.3%
9 | Clc1nc2ccccc2nc1-c1ccccc1 | 20%
10 | COc1cc(C2c3sc(=O)[nH]c3SC3C4CCC(C4)C23)ccc1O (centres unmarked) | -3.55%
11 | CC(C)(C)OC(=O)N[C@@H](Cc1ccccc1)c1nnc(SCC(=O)c2ccc(Cl)cc2)o1 | -4.25%
12 | CN(C)S(=O)(=O)N1CCC(Oc2ccc(C(=O)N3C[C@@H]4CCC[C@H]3C4)cc2)CC1 | 4.6%
13 | COc1ccc(-c2noc(-c3ccc(Cl)cc3[N+](=O)[O-])n2)cc1OC | -7.48%
14 | CCN(CC)C(=O)c1cc(C(C)(C)C)c(O)c(C(C)(C)C)c1 | -34.4%
15 | C=C(C)CC(c1ccccc1)N(C(C)=O)c1ccco1 (centres unmarked) | 0.026%
16 | Cc1cc(C)c(S(=O)(=O)Nc2c(C)n(C)n(-c3ccccc3)c2=O)cc1[N+](=O)[O-] | 9.1%
17 | CC(Sc1nc(=O)cc(N)n1CCc1ccccc1)C(=O)NCc1ccccc1 (centres unmarked) | 3.18%
18 | O=C1CC(N2CCOCC2)=NN1c1ccc([N+](=O)[O-])cc1 | -8.54%
19 | CCOC(=O)c1ccc(/[N+]([O-])=C/c2ccccc2)cc1 | 0.217%

Row | SMILES | hERG current change (%, negative = inhibition) at 10uM
20 | Cc1ccccc1NC(=O)NCc1ccco1 | 8.5%
21 | COc1ccc(CCN(C(=S)Nc2ccccc2)C2CC(=O)N(c3ccccc3)C2=O)cc1 (centres unmarked) | 10.9%
22 | O=C(CCNS(=O)(=O)c1ccc(Br)cc1)NCCc1ccccc1 | -15.9%
23 | COc1ccc(CCC(=O)N2CCN(S(=O)(=O)c3ccc(OC)cc3)CC2)cc1 | -8.45%
24 | O=C(Cn1nnc(-c2cccc(C(F)(F)F)c2)n1)NC1CCCC1 | 9.02%
25 | COc1ccc(S(=O)(=O)Nc2ccccc2N2CCOCC2)cc1[N+](=O)[O-] | -13.7%
26 | CC(C(=O)NCCCN1CCOCC1)n1cccc1C(=O)c1ccccc1 (centres unmarked) | 1.16%
27 | O=C(Nc1ccc(Cl)cc1)C(Cl)C(=O)c1ccccc1 (centres unmarked) | -3.81%
28 | Cc1ccc2c(C(=O)CN3CCN(C4CCCCC4)CC3)c(C)[nH]c2c1 | -55.1%
29 | Cc1cc(Cl)n2nc(C)c(-c3ccc(Cl)cc3)c2n1 | 21.7%
30 | CCOC(=O)N1CCN(C(=O)COc2ccc(S(=O)(=O)NCC(C)C)cc2C)CC1 | -11.7%
31 | COc1ccc(-c2cc(=O)oc3c(C)c(OCc4nn[nH]n4)ccc23)cc1 | 14.8%
32 | COC(=O)C1=CN(Cc2ccc(OC)c(OC)c2)C=C(C(=O)OC)C1c1cccc(F)c1 | -4.58%
33 | Cc1cc(C)nc(NS(=O)(=O)c2ccc(NC(=S)NC(=O)C(C)(C)C)cc2)n1 | -15.1%
34 | Cc1cc(NC(=O)CN(C)CC(=O)Nc2ccc(Cl)c(C(F)(F)F)c2)no1 | -3.81%
35 | CCc1ccc(NC(=O)/C(C#N)=C/c2ccncc2)cc1 | -24.7%
36 | CCOc1ccc(CCNc2ccc3nnc(-c4ccccc4)n3n2)cc1OCC | 1.95%
37 | Cc1ccc(NC(=O)C2CCCN(S(=O)(=O)c3c(C)noc3C)C2)c(C)c1 (centres unmarked) | -10.9%
38 | CC(=O)c1sc2nc(C)cc(C)c2c1N | -8.84%

Row | SMILES | hERG current change (%, negative = inhibition) at 10uM
39 | CCOC(=O)c1ccc(NS(=O)(=O)c2c(C)n(C)c(=O)n(C)c2=O)cc1 | -26.6%
40 | O=C(NCc1cccnc1)c1ccccc1CCc1ccccc1 | -20.7%
41 | CCOc1ccc(CCNC(=O)COC(=O)/C=C/c2ccc(OC(F)F)c(OC)c2)cc1OCC | -15.2%
42 | CCOc1ccccc1C(=O)OCC(=O)Nc1ccc(N2CCCCC2)cc1 | 4.96%
43 | CCN1CCN(c2nnc(-c3ccccc3)c3ccccc23)CC1 | -36.8%
44 | O=S(=O)(c1ccc(-c2cn3ccccc3n2)cc1)N1CCOCC1 | 2.71%
45 | CN(C)S(=O)(=O)c1cccc(NC(=S)NCCc2ccccn2)c1 | 28.5%
46 | COc1cccc(-n2nnnc2SCC(=O)Nc2cccc(C)n2)c1 | -7.58%
47 | COC(=O)c1ccc(C(=O)OC)c(NC(=O)COC(=O)C2CC2C)c1 (centres unmarked) | -21.4%
48 | O=C(c1ccccc1[N+](=O)[O-])N1CCCN(C(=O)c2ccccc2[N+](=O)[O-])CC1 | -14.8%
49 | O=C(Nc1ccnn1C1CCN(C2CCC2)CC1)c1ccccc1Cl | -63.6%
50 | O=C(NCc1ccccn1)c1ccc(Br)s1 | -9.41%
51 | OCC#Cc1ncc(C(F)(F)F)cc1Cl | 25.4%
52 | C/C(=N/NC(=O)c1ccco1)c1cccc(NC(=O)c2ccc(C)o2)c1 | -45.4%
53 | O=C(Nc1ccc(O)c(-c2nc3ccccc3o2)c1)C1(c2ccc(Cl)cc2)CCCC1 | 6.17%
54 | Cc1ccc(C(=O)Nc2nnc(C)s2)o1 | -11.4%
55 | COc1ccc(-n2nnnc2-c2nc3ccccc3s2)cc1 | -15.7%
56 | O=C(N/N=C/c1cccc(O)c1)c1cc(-c2ccc3c(c2)OCO3)n[nH]1 | 5.82%
